In paper PMC12040169 (PLOS Biology, 2025):
The other results are listed elsewhere or left out.

tested on: T1, C. trachomatis L2/434/Bu expressing GFP (CTL2-GFP); set-up: species or system HeLa; C. trachomatis total inclusion area by high-content imaging, normalised to DMSO; details: total inclusion area; 28.5 h, 10 µM; inhibitor
T1 construct: L2/434/Bu GFP intracellular growth in HeLa cells
How it was run: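 High-content images of fixed, Hoechst-stained infected cultures supply inclusion area and count (growth) plus nuclei number (viability), complementing bulk GFP/resorufin fluorescence. MIC determination is unchanged from the primary assay.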

**Q.** How did the “% of control remaining” value turn out when `Brc1cn2ccnc2c(NCC2CC2)n1` [CBK037432] was run?
**A.** 114.136

**Q.** `CC#Cc1cn([C@H]2C[C@@H](O)[C@@H](CO)O2)c(=O)nc1N` [CBK201257] was tested. Which “% of control remaining” value did it give?
**A.** 84.1458

**Q.** `COC(=O)c1cc(S(=O)(=O)NC2CCCc3ccccc32)cn1C` (centres unmarked) [CBK304616] was tested. Which “% of control remaining” value did it give?
**A.** 47.9537

**Q.** How did the “% of control remaining” value turn out when `CC(C)(C)OC(=O)n1cccc1-c1cncc(-c2ccc(C(=O)N3CCOCC3)cc2)n1` [CBK138520] was run?
**A.** 107.57

**Q.** `CN1CCN(CC(=O)C(C#N)c2ccccc2)CC1` (centres unmarked) [CBK269270] was tested. Which “% of control remaining” value did it give?
**A.** 117.467

**Q.** Which “% of control remaining” value does the source give for `CC(C)c1ccc(C(C)NC(=O)Cn2cccc(C(=O)Nc3ccc(F)cc3)c2=O)cc1` (centres unmarked) [CBK286043] here?
**A.** 115.995

**Q.** `COc1ccc(C)cc1C1(CNC(=O)C2CCCC2N)CCOCC1` (centres unmarked) [CBK304308C] was tested. Which “% of control remaining” value did it give?
**A.** 28.5294

**Q.** `O=S(=O)(Nc1nc(-c2sccc2Cl)cs1)c1cc(Cl)ccc1Cl` [CBK014147] was tested. Which “% of control remaining” value did it give?
**A.** 91.1562

**Q.** Which “% of control remaining” value does the source give for `CC(=O)O[B-]1(OC(C)=O)N(c2ccc(S(N)(=O)=O)cc2)N=C(c2ccccc2)N=[N+]1c1ccccc1` [CBK260879] here?
**A.** 101.685

**Q.** How did the “% of control remaining” value turn out when `CC(NC(=S)Nc1ccc(S(N)(=O)=O)cc1)c1ccncc1` (centres unmarked) [CBK267073] was run?
**A.** 91.1088

**Q.** Which “% of control remaining” value does the source give for `CN1C(=O)COc2ccccc2CCCC[C@@H]2[C@H]1CCCN2C(=O)Cn1ccnc1` [CBK292152] here?
**A.** 123.979

**Q.** For `COc1cccc(S(=O)(=O)Nc2nn(Cc3ccc(C)cc3)c3ccccc23)c1` [CBK048043], which “% of control remaining” value is on record?
**A.** 80.2353

**Q.** `COc1ccc(Br)cc1CN1CCC(N2CCN(c3ccccc3OC)CC2)CC1` [CBK264681G] was tested. Which “% of control remaining” value did it give?
**A.** 97.7642

**Q.** Which “% of control remaining” value does the source give for `C[C@H]1CN2C[C@H](O)CC2CN1Cc1cn(C)c2ccc(F)cc12` (some centres unmarked) [CBK285428] here?
**A.** 94.4127

**Q.** `Cn1cc([C@@H]2O[C@H](CO)[C@H](O)C2O)c(=O)n(C)c1=O` (some centres unmarked) [CBK201191] was tested. Which “% of control remaining” value did it give?
**A.** 105.819

**Q.** For `NC(=O)C1CCN(C(=O)CN2CCN(Cc3ccccc3)CC2)CC1` [CBK265971C], which “% of control remaining” value is on record?
**A.** 97.0119

**Q.** How did the “% of control remaining” value turn out when `COc1ccc2cc(CNC(Cc3ccccc3)c3ccccc3)c(Cl)nc2c1` (centres unmarked) [CBK295357] was run?
**A.** 112.958

**Q.** With `COc1ccc(CCOC(=O)Nc2cn(C)nc2C(F)(F)F)cc1OC` [CBK021070] as the compound, how does the “% of control remaining” value read?
**A.** 16.3341

**Q.** `CC(C)(C)OC(=O)N1CCN(c2ncc([N+](=O)[O-])s2)CC1` [CBK000135] was tested. Which “% of control remaining” value did it give?
**A.** 97.2356

**Q.** `CCc1c(C)c2cc(Cl)c(O)c(CN3CCCC3)c2oc1=O` [CBK267099] was tested. Which “% of control remaining” value did it give?
**A.** 138.376

**Q.** With `O=S(=O)(Nc1nnc(C(F)(F)F)s1)c1ccc(Br)cc1C(F)(F)F` [CBK062013] as the compound, how does the “% of control remaining” value read?
**A.** 91.5636

**Q.** Which “% of control remaining” value does the source give for `C=CCn1c(SCC(=O)Nc2ccc(OC)cc2)nnc1-c1ccncc1` [CBK126824] here?
**A.** 113.307

**Q.** For `Cc1cc(C(=O)Nc2ccc(S(=O)(=O)N3CC(C)OC(C)C3)cc2)c2ccccc2n1` (centres unmarked) [CBK295170], which “% of control remaining” value is on record?
**A.** 72.9449

**Q.** For `O=c1[nH]nc2c3c(nc(-c4ccncc4)n12)CCCC3` [CBK288029], which “% of control remaining” value is on record?
**A.** 105.549

**Q.** For `CCCCCNC(=N)NC1Cc2ccccc2C1` [CBK036321T], which “% of control remaining” value is on record?
**A.** 73.6991

**Q.** Which “% of control remaining” value does the source give for `Cc1nn(C)c(N2CCNCC2)c1NC(=O)c1cccn1C` [CBK050309T] here?
**A.** 105.793

**Q.** With `Cn1c(CN2CCCCC2)nc2cc(NS(=O)(=O)c3ccc(Cl)cc3)ccc21` [CBK268404] as the compound, how does the “% of control remaining” value read?
**A.** 94.7272

**Q.** For `O=C(O)CCCN1C(=O)/C(=C\c2ccccn2)SC1=S` [CBK264552], which “% of control remaining” value is on record?
**A.** 103.265

**Q.** With `Cn1ccc(C(=O)NC(Cc2ccsc2)c2nccs2)cc1=O` (centres unmarked) [CBK285143] as the compound, how does the “% of control remaining” value read?
**A.** 86.6899

**Q.** `O=C(Cc1c[nH]c2ccccc12)N1CCc2ccccc21` [CBK200366] was tested. Which “% of control remaining” value did it give?
**A.** 132.052

**Q.** How did the “% of control remaining” value turn out when `O=C(NCC1CCCO1)c1ccc(CNS(=O)(=O)c2cccc(Cl)c2)cc1` (centres unmarked) [CBK267219] was run?
**A.** 98.9851

**Q.** Which “% of control remaining” value does the source give for `CCn1cc(Cl)c(C(=O)Nc2ccsc2C(=O)OC)n1` [CBK058439] here?
**A.** 90.9421

**Q.** `O=C(CN1C(=O)C2C3C=CC(C3)C2C1=O)OCC(=O)c1ccccc1` (centres unmarked) [CBK265112] was tested. Which “% of control remaining” value did it give?
**A.** 97.1966

**Q.** `COCC(=O)N1CCC(c2cc(-c3ccc(F)cc3)n[nH]2)C1` (centres unmarked) [CBK284600] was tested. Which “% of control remaining” value did it give?
**A.** 90.1391

**Q.** Which “% of control remaining” value does the source give for `CCN1CCCC1CNc1c(Cl)c(Cl)nc2c1c(=O)n(C)c(=O)n2C` (centres unmarked) [CBK007287] here?
**A.** 95.1751

**Q.** For `CCN(CC)C(=O)C1CCCN(C(=O)NCC2COc3ccccc3O2)C1` (centres unmarked) [CBK156116], which “% of control remaining” value is on record?
**A.** 93.5987

**Q.** With `O=C(C1CCC1)N1CCC(c2nc(C3CCCC3)no2)C1` (centres unmarked) [CBK285434] as the compound, how does the “% of control remaining” value read?
**A.** 77.2899

**Q.** With `COc1ccc(Sc2nc3cc(Cl)c(Cl)cc3nc2NC(C)C)cc1OC` [CBK093792] as the compound, how does the “% of control remaining” value read?
**A.** 97.9998

**Q.** How did the “% of control remaining” value turn out when `O=C(NC(=S)Nc1cc(-c2nc3ccccc3[nH]2)ccc1Cl)c1ccccc1[N+](=O)[O-]` [CBK268649] was run?
**A.** 98.5205

**Q.** How did the “% of control remaining” value turn out when `COc1cc(CNC2CCCCC2)cc(I)c1OCC(N)=O` [CBK269158C] was run?
**A.** 113.359

**Q.** Which “% of control remaining” value does the source give for `COc1ccc(S(=O)(=O)N2CCN(C(=O)COc3ccc(C)cc3)CC2)cc1` [CBK263354] here?
**A.** 105.545

**Q.** Which “% of control remaining” value does the source give for `O=C(Cc1cccs1)Nc1cccc(C(=O)Nc2cccc(C(=O)O)c2)c1` [CBK268509] here?
**A.** 115.749

**Q.** Which “% of control remaining” value does the source give for `CCCCc1nccn1CCn1ccnc1CCCC` [CBK020437] here?
**A.** 86.4663

**Q.** `COc1cc(C(=O)N2CCN(c3cc(C(C)C)ccc(CO)c3=O)CC2)cc(OC)c1OC` [CBK007673] was tested. Which “% of control remaining” value did it give?
**A.** 110.807

**Q.** `COc1ccc(S(=O)(=O)Nc2c(C(=O)N3CCOCC3)sc3ncccc23)cc1OC` [CBK050005] was tested. Which “% of control remaining” value did it give?
**A.** 65.509

**Q.** How did the “% of control remaining” value turn out when `COc1ccc(/C=C/C(=O)O)cc1S(=O)(=O)Nc1ccc(C(=O)O)cc1` [CBK261246] was run?
**A.** 110.473

**Q.** Which “% of control remaining” value does the source give for `Cc1ccc(N(CC(=O)Nc2ccccc2C(N)=O)S(=O)(=O)c2ccccc2)cc1C` [CBK265246] here?
**A.** 96.988

**Q.** How did the “% of control remaining” value turn out when `COc1ccc2nc(Nc3nc(=O)cc(CSc4nc5ccccc5s4)[nH]3)nc(C)c2c1` [CBK264854] was run?
**A.** 96.6889

**Q.** How did the “% of control remaining” value turn out when `COc1ccc(CCN2C(=O)CC(N3CCN(Cc4ccc5c(c4)OCO5)CC3)C2=O)cc1OC` (centres unmarked) [CBK074555] was run?
**A.** 92.9076

**Q.** With `O=C(O)c1ccccc1NC1CC(=O)N(C2CCCCC2)C1` (centres unmarked) [CBK286556] as the compound, how does the “% of control remaining” value read?
**A.** 104.199
